Experimental data taken from the supplement of paper PMC3334620.
In all, about 33,000 sequences were measured (“E-score (-0.5 to 0.5)”: median about -0.056, highest 2% from about 0.38 on). The list shows a part of the results.

biological target: Stb4 (UniProt P50104); assay: PBM E-score (8-mer binding enrichment) (E-score (-0.5 to 0.5)); higher = stronger / more preferred TF binding; most listed sequences are background and not binding sites; conditions: protein concentration: 200 nM; construct: GST-DNA-binding domain
Procedure, shortened: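 The E-score, a modified Wilcoxon-Mann-Whitney statistic, was computed by the Universal PBM Analysis Suite for every ungapped eight-base word pooled with its reverse complement. Scans behind it were normalised with masliner after bound GST-tagged yeast transcription factors were detected with fluorescent anti-GST. The proteins, at about 100-200 nM, had been applied to universal all-10-mer Agilent arrays made double-stranded by primer extension.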

| Sequence | PBM E-score |
| --- | --- |
| GTCCTCAA | -0.105 |
| AATTCTGA | -0.159 |
| CGGGTCCC | 0.19 |
| GACGCGGA | 0.265 |
| CAACGTCG | 0.11 |
| ATCCCATG | -0.18 |
| ATGTGCTC | -0.0759 |
| CTCAAGGC | 0.065 |
| ATACACTC | 0.144 |
| CCCGGGCC | 0.312 |
| ATGTGGCG | 0.00435 |
| GTGTATAA | -0.247 |
| GCCCTCGC | -0.141 |
| CCGACTGA | 0.24 |
| AATAGGGT | -0.0319 |
| CCGACGCC | 0.343 |
| CACACTCA | -0.126 |
| AGCCTCCC | -0.112 |
| ATACACTA | -0.184 |
| ACACAAAG | -0.11 |
| CCGCACAC | 0.0462 |
| CAAATCAA | -0.202 |
| CAAGTATG | -0.31 |
| TCGAGCGA | -0.205 |
| CCTGATTA | -0.0882 |

| Sequence | PBM E-score |
| --- | --- |
| AGATCGGA | 0.438 |
| ACAGTACA | -0.0304 |
| AATTGTCC | 0.0336 |
| CAGATATA | -0.181 |
| CACGCTCC | -0.0234 |
| CGAATCCG | 0.354 |
| AGCCTTTC | -0.0737 |
| GAAGTCAA | -0.084 |
| ATTCAACA | -0.0716 |
| AATCCTTA | -0.0563 |
| CCTTTAAC | 0.118 |
| CCCCCCCG | -0.164 |
| ATTCGCGA | -0.154 |
| ATAGTCAT | -0.027 |
| AAAAGCCT | -0.257 |
| CGCCGGCA | 0.261 |
| CAAAGGCC | -0.0914 |
| ACGGGCCA | 0.015 |
| GACTGTGC | -0.166 |
| CCCCTGCG | -0.165 |
| CCGACCCA | 0.32 |
| CTTGAGGC | -0.17 |
| AACAGTAC | -0.0138 |
| ACGCTGGC | -0.131 |
| AAGTACGC | -0.164 |

| Sequence | PBM E-score |
| --- | --- |
| ATTGTACA | -0.0234 |
| TTATGCAA | -0.214 |
| ACTGAACG | -0.259 |
| GTGACAGA | -0.0746 |
| AGACAGTG | -0.106 |
| AGAATTCT | 0.0793 |
| CCTGTCGC | -0.121 |
| ATGTCTGG | 0.0541 |
| AGGGAATG | -0.118 |
| AGACTTTA | -0.186 |
| AGCACAGA | -0.121 |
| GAAATCTA | 0.0604 |
| GAATAGCA | -0.207 |
| GTAGTTTA | 0.0229 |
| CCTTTTTC | 0.0967 |
| GAAACGAC | -0.0855 |
| ACCCCGTA | -0.0633 |
| AAAAAAAC | 0.0136 |
| ACCTAACA | 0.00411 |
| CAAGGACG | -0.191 |
| ACTTGAGG | -0.153 |
| GCTGCACA | -0.125 |
| CAAGCGGG | 0.0934 |
| AACTACTT | -0.0554 |
| GGGGTCAC | 0.0106 |

| Sequence | PBM E-score |
| --- | --- |
| AGAGGAGA | -0.198 |
| CAACGAAC | -0.158 |
| AGAAATTA | 0.0316 |
| CTGCCGGC | 0.281 |
| GTGGAACA | -0.0512 |
| CTACCTAC | 0.0142 |
| CACAGGTA | -0.126 |
| ACCCTTCA | -0.108 |
| CCTTATAG | -0.26 |
| CCATATCG | 0.0884 |
| ACTAAGCC | 0.0762 |
| TAGATTGA | 0.159 |
| GAAACAGA | -0.0644 |
| TACCCACA | -0.0436 |
| TCTCCCCA | -0.0746 |
| CAATAACC | 0.182 |
| ATGCCGGA | 0.366 |
| TAAGGGTA | -0.235 |
| GGCCGGTA | 0.18 |
| CCGGCTCA | 0.247 |
| ATGCCGAG | 0.423 |
| ATGCAATC | -0.0379 |
| ATTCCAAT | -0.192 |
| AAGGCGCG | -0.203 |
| CACACGAA | -0.195 |

| Sequence | PBM E-score |
| --- | --- |
| CTTCTTTA | -0.0675 |
| AAACCCGC | 0.246 |
| ATGGACTA | -0.197 |
| CGTATGAA | 0.0196 |
| ACAGACTA | -0.124 |
| ACCAGAAG | -0.213 |
| TGGTTACA | -0.164 |
| ATACCTTC | -0.103 |
| CAGGCCGC | -0.0516 |
| GTAAATTA | -0.0172 |
| ACCTTCAG | -0.168 |
| ATCTTCAG | -0.00891 |
| GTGTGGCA | -0.0783 |
| ATTTCCGG | 0.426 |
| AAATTGGT | 0.0302 |
| ACGTGGGC | -0.277 |
| GCAGGCTA | -0.102 |
| CTGCCGGA | 0.343 |
| CACCTTGG | -0.0774 |
| ATGGCTTC | -0.161 |
| ACTGAGAC | -0.283 |
| ATTACGCC | -0.07 |
| CGGGTGGA | 0.256 |
| TCGGTTAA | 0.44 |
| AAATATCC | 0.305 |

| Sequence | PBM E-score |
| --- | --- |
| ACGCCGAC | 0.272 |
| CTGCGAGC | -0.126 |
| ATCTGTCA | 0.037 |
| AACCGAAT | 0.325 |
| CTCGATTC | -0.0249 |
| GCAAGTAA | -0.0627 |
| TATGCACA | -0.0462 |
| GGCGCGTA | 0.097 |
| GATATTCC | 0.265 |
| CGCATATA | -0.0363 |
| CCCCCCTA | -0.178 |
| TCCTAGGA | -0.093 |
| ACTTTACC | 0.124 |
| TGGGATAA | -0.182 |
| ATGATTCC | 0.17 |
| GAGTCGAA | 0.121 |
| AGTCAAAA | -0.115 |
| CTTCAGGA | 0.074 |
| ACACTTCA | 0.022 |
| CCAGCATA | -0.278 |
| ATCGGTCC | 0.169 |
| CCTGATAG | -0.17 |
| AGAGCTCG | 0.175 |
| GTCTCGGA | 0.442 |
| AGGCTTGC | -0.327 |

| Sequence | PBM E-score |
| --- | --- |
| AAGAGCAA | -0.153 |
| ACATCGGT | 0.144 |
| CGCTAAAA | -0.162 |
| GTGCGCAC | 0.236 |
| CCCATAGA | -0.255 |
| ACCGCCAG | -0.0546 |
| GAAAGTAA | 0.0859 |
| AAGTGACG | -0.0102 |
| GTTCTATA | -0.173 |
| AGATCAGG | -0.0568 |
| CTTGACCC | -0.0581 |
| AGCGTCAC | -0.0735 |
| CTTCATGC | -0.0601 |
| AATGACAT | -0.0231 |
| CATTGAAC | 0.0414 |
| ACCTCAAG | -0.227 |
| TAAAGTAA | -0.189 |
| AGCACGGG | 0.121 |
| ACGTGCCG | 0.278 |
| CAATAGAG | -0.315 |
| CATACCTA | 0.0497 |
| AGAAGGTC | -0.231 |
